PubChem BioAssay AID894 (National Center for Advancing Translational Sciences (NCATS), 2007)
Where “and” joins values, the source holds several entries; their conditions need not be identical. Equal values may be shown once. Screen size: about 150,000 compounds; about 6,500 (4.3%) were called active. Inconclusive results, whose numbers are uncertain, are shown with a selection of clear calls. Calls follow the shape of the dose curve; as a rule, active = well fitted inhibition curve with a large enough effect (not every such curve was filed as active); inconclusive = small, poorly fitted or top-dose-only effect, or another doubt; inactive = no such curve, though single readings can be large or run the other way. Where the call is inconclusive, the potency comes from a doubtful curve fit.

target: 15-hydroxyprostaglandin dehydrogenase [NAD(+)] (Homo sapiens) (UniProt P15428); assay: qHTS Assay for Inhibitors of HPGD (15-Hydroxyprostaglandin Dehydrogenase); settings: purified HPGD, NADH fluorescence kinetic, PGE2 substrate; activity change, negative = inhibition: stronger effect = lower value
Chain of UniProt P15428 (P15428 whole entry, looked up): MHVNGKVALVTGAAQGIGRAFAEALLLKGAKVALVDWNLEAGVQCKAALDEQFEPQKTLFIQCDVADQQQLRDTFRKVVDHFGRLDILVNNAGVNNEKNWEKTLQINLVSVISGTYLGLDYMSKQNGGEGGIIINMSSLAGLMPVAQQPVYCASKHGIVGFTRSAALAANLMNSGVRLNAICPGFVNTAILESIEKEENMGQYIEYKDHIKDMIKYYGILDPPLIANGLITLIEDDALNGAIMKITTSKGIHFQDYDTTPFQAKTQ
Method in brief: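 NADH formation kinetics: reaction with 30 uM PGE2 and 1 mM NAD+ (final), 20 nM enzyme, Tris-HCl pH 8 with Tween 20, after 15 min compound preincubation at room temperature. Fluorescence change, last versus first of five reads.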
% is scaled to controls: 0 for no effect and ±100 for the full control effect; potency is read from the fitted curve at half-maximal effect; tags tell the direction and shape of the fitted curve.

Row | SMILES | activity change, negative = inhibition | Potency
1 | C=CCOC(=O)/C(=C/c1cccc2ccccc12)NC(=O)c1ccccc1 | inactive: -22.1% | –
2 | COc1ccc2nc(CC(C)(C)CC(=O)O)c[n+]([O-])c2c1 | – | inconclusive: 28.2 µM [inhibitor, partial curve]
3 | Cc1ccsc1C1NC(=O)c2c(sc3c2CCN(C)C3)N1 (stereo unspecified) | – | inconclusive: 28.2 µM [inhibitor, partial curve]
4 | Cc1cccc(CNc2cc(-c3ccoc3)ncn2)c1 | – | active: 20 µM
5 | CCCn1c(-c2ccc(F)cc2)nc2c(NCCN(C)C)nc(C)nc21 | – | inconclusive: 25.1 µM [inhibitor, partial curve]
6 | CCCOc1ccc(-c2nc(C#N)c(NCCCn3ccnc3)o2)cc1 | – | inconclusive: 31.6 µM [inhibitor, partial curve]
7 | CCn1c2ccccc2c2nnc(SCC(=O)c3ccccc3)nc21 | – | inconclusive: 15.8 µM [inhibitor, partial curve]
8 | COC(=O)c1ccc(COc2ccc3c(C)c(C)c(=O)oc3c2)o1 | – | inconclusive: 3.55 µM [inhibitor, full curve]
9 | Cc1c(C#N)c2ncn(Cc3ccccn3)c(=O)c2n1-c1ccccc1 | – | inconclusive: 25.1 µM [inhibitor, partial curve]
10 | O=C1CCN(N=Nc2cccc(Cl)c2)N1 | – | inconclusive: 28.2 µM [inhibitor, single point]
11 | C=CCNC(=O)c1ccccc1Cl | – | active: 15.8 µM
12 | O=C(Cn1nc(C(F)F)cc1C(F)F)NNC(=S)Nc1ccc(F)cc1 | inactive: -17.4% | –
13 | Cc1noc(C)c1C(=O)Nc1sc2c(c1C(N)=O)CCCCC2 | – | inconclusive: 22.4 µM [inhibitor, partial curve]
14 | O=C(CSC1=Nc2ccccc2C2=NC(CC(=O)NC3CCCCC3)C(=O)N12)NCc1ccco1 (stereo unspecified) | – | inconclusive: 35.5 µM [inhibitor, partial curve]
15 | COc1cc(C(=S)N(C)C)ccc1O | – | active: 17.8 µM
16 | O=C(O)c1cc(-c2ccco2)nc2ccc(Br)cc12 | – | inconclusive: 31.6 µM [inhibitor, partial curve] and inconclusive: 28.2 µM [inhibitor, partial curve]
17 | O=c1oc2ccccc2c(NCc2cccc(F)c2)c1[N+](=O)[O-] | – | active: 20 µM
18 | O=C1CSC(=Nc2cc(Cl)ccc2Cl)N1 | – | active: 10 µM
19 | CC1=CN2C(=N)/C(=C/c3ccc(Sc4ccc(C)cc4)o3)C(=O)N=C2S1 | – | inconclusive: 35.5 µM [inhibitor, partial curve]
20 | COC(=O)CSc1n[nH]c(-c2ccncc2)n1 | inactive: -11.7% | –
21 | Cc1ccc2[nH]c3c(=O)n(Cc4ccncc4)cnc3c2c1 | – | inconclusive: 17.8 µM [inhibitor, partial curve, poor fit]
22 | O=C(O)/C(=C\c1ccccc1)Cc1ccccc1 | inactive: -5.5% | –
23 | N#Cc1c(-c2ccc3c(c2)OCO3)ccn2nc(-c3cccc(C(F)(F)F)c3)nc12 | – | inconclusive: 14.1 µM [inhibitor, partial curve]
24 | CCOC(=O)c1c(NC(=O)c2cnn3c2NC(c2cccc(OC)c2)CC3C(F)(F)F)sc2c1CCCC2 (stereo unspecified) | – | inconclusive: 35.5 µM [inhibitor, partial curve]

Row | SMILES | activity change, negative = inhibition | Potency
25 | CNC(=S)NNC(=O)c1sccc1OCc1ccccc1 | inactive: 1.03% | –
26 | COc1cc2c(-c3ccc(O)cc3)nc3c(c(C)nn3-c3ccccc3)c2cc1OC | – | inconclusive: 28.2 µM [inhibitor, partial curve]
27 | CCOC(=O)CCNC(C(=O)OCC)c1ccccc1 (stereo unspecified) | inactive: -1% | –
28 | COc1ccc2cc3c(N)c(C(=O)NCc4ccco4)sc3nc2c1 | – | inconclusive: 28.2 µM [inhibitor, single point]
29 | O=C(c1cc2ccccc2c(=O)o1)N1CCCCCC1 | – | active: 17.8 µM
30 | CCCCN(CC)S(=O)(=O)c1ccc(C(=O)Nc2nnc(-c3ccccc3Cl)o2)cc1 | inactive: -16.7% | –
31 | O=C(NCc1cccnc1)/C(=C\c1ccc(-c2ccc(Cl)c(Cl)c2)o1)S(=O)(=O)c1ccccc1 | – | inconclusive: 28.2 µM [inhibitor, partial curve]
32 | O=C(CSc1nc2ncc(Br)cc2[nH]1)c1cccc([N+](=O)[O-])c1 | – | active: 7.94 µM
33 | O=c1c(-c2cccc(F)c2)nc2cncnc2n1Cc1ccccc1 | inactive: -19.2% | –
34 | O=C1CCN(S(=O)(=O)c2ccccc2)C2CCCCC12 (stereo unspecified) | inactive: -7.8% | –
35 | CCCCn1c(SCC(=O)OCC)nc2c1c(=O)[nH]c(=O)n2C | – | inconclusive: 31.6 µM [inhibitor, single point]
36 | CC(C)c1cccc2nc3c(c([Si](C)(C)C(C)(C)C)c12)Cn1c-3cccc1=O | – | inconclusive: 31.6 µM [inhibitor, partial curve]
37 | S=P(N1CC1)(N1CC1)N1CC1 | – | active: 10 µM
38 | CCN1C(=O)c2cccc3c(S(=O)(=O)Nc4ccncc4)ccc1c23 | – | inconclusive: 15.8 µM [inhibitor, partial curve]
39 | CCOC(=O)c1cc2c(=O)n3ccccc3nc2n(CC(C)C)c1=NC(=O)c1ccco1 | – | inconclusive: 28.2 µM [inhibitor, partial curve]
40 | O=C(CCCCCCN1C(=O)c2ccccc2C1=O)Nc1nccs1 | – | active: 7.94 µM
41 | COc1cc(C2Nc3ccccc3C(=O)N2c2ccc3c(c2)OCCO3)ccc1OCC(C)C (stereo unspecified) | – | inconclusive: 35.5 µM [inhibitor, partial curve]
42 | CCCCn1nnc(NC(=O)c2ccc(-c3cccc(Cl)c3)o2)n1 | – | inconclusive: 25.1 µM [inhibitor, partial curve]
43 | COc1cc(OC)c(C2=NOC(C(=O)NCc3ccc4c(c3)OCO4)C2)cc1Cl (stereo unspecified) | – | inconclusive: 35.5 µM [inhibitor, single point]
44 | COc1cccc(-c2[nH]nc3c2C(c2ccc(C)o2)C(C#N)=C(N)O3)c1 (stereo unspecified) | – | inconclusive: 25.1 µM [inhibitor, partial curve, poor fit]
45 | COc1cccc(-c2nnc(-c3ccco3)o2)c1 | – | inconclusive: 25.1 µM [inhibitor, partial curve]
46 | CCn1c(-c2ccc(C(C)(C)C)cc2)n[nH]c1=S | – | inconclusive: 31.6 µM [inhibitor, partial curve]
47 | COCc1cc(=O)[nH]c(/N=C(\N)Nc2ccc(Oc3ccccc3)cc2)n1 | – | inconclusive: 28.2 µM [inhibitor, partial curve, poor fit]
48 | O=c1c2ccccc2c2ccccc2c(=O)n1Cc1ccco1 | inactive: -15.7% | –

Row | SMILES | activity change, negative = inhibition | Potency
49 | CC1C/C(=N/Nc2nc3ccccc3[nH]2)CC(C)(C)C1 (stereo unspecified) | inactive: -8.66% | –
50 | CCCc1cc(=O)oc2cc3occ(C)c3cc12 | – | inconclusive: 35.5 µM [inhibitor, single point]
51 | CCOC(=O)COc1ccc(C(=O)NC2CCCCC2)cc1 | inactive: -20.8% | –
52 | O=C(Nc1ccc2nc(-c3ccco3)c(-c3ccco3)nc2c1)N1CCCCCC1 | – | inconclusive: 10 µM [inhibitor, partial curve]
53 | Cc1ccccc1Cn1cc(NC(=O)c2nn(C)cc2Cl)cn1 | – | inconclusive: 20 µM [inhibitor, partial curve]
54 | Nc1ccc(S(=O)(=O)c2ccc(NC(=O)c3cccnc3)cc2)cc1 | inactive: -7.95% | –
55 | O=C(CSc1ncc(C(F)(F)F)cc1Cl)N1CCN(S(=O)(=O)c2ccccc2)CC1 | – | inconclusive: 25.1 µM [inhibitor, single point]
56 | CCCn1c(C)nc2c(NCCCN(CCO)CCO)nc(C)nc21 | inactive: 0.0594% | –
57 | O=C(NCCO)c1ccc(Cc2nc3ccccc3[nH]2)cc1 | inactive: 0.181% | –
58 | COc1ccc(OC)c(-c2ccc(C(=O)O)o2)c1 | – | inconclusive: 31.6 µM [inhibitor, partial curve]
59 | COCc1cc(C)nc(OCC(=O)N/N=C/c2ccc(-c3cc([N+](=O)[O-])ccc3C)o2)c1C#N | inactive: -24.6% | –
60 | O=C1CCN1C1(C(=O)NC2CCCCC2)CCCC1 | inactive: -3.48% | –
61 | CCCn1c(=O)c2ccccc2n2c(SCC(=O)c3ccc(CC)cc3)nnc12 | – | inconclusive: 25.1 µM [inhibitor, single point]
62 | COc1cccc(-c2ccc(C#N)c(SCC(=O)NCCc3cccc(Cl)c3)n2)c1 | – | inconclusive: 31.6 µM [inhibitor, partial curve]
63 | CC(=O)N1CCN(C(=S)NC(=O)c2ccc(S(=O)(=O)N3CCOCC3)cc2)CC1 | – | inconclusive: 35.5 µM [inhibitor, single point]
64 | CCN(C(C)=O)c1nc(CSc2nnc(NC(C)C)s2)cs1 | – | inconclusive: 12.6 µM [inhibitor, partial curve]
65 | CCc1ccc(NC(=O)c2cnc3scc(C)n3c2=O)cc1 | – | inconclusive: 25.1 µM [inhibitor, single point]
66 | O=C(O)[C@@H]1[C@@H](C(=O)NCc2cccnc2)[C@@H]2C=C[C@@H]1O2 | inactive: -12.7% | –
67 | COC(=O)c1ccccc1NC(=O)c1cn(-c2ccc(C)c(C)c2)c(=O)c2ccccc12 | – | inconclusive: 31.6 µM [inhibitor, single point]
68 | COc1ccccc1C1CC(=O)n2c(nc(-c3ccccc3)c2-c2ccccc2)S1 (stereo unspecified) | – | inconclusive: 3.55 µM [inhibitor, full curve, poor fit]
69 | CCOC(=O)Nc1ccc(C(=O)NCC2CCCO2)cc1 (stereo unspecified) | – | active: 15.8 µM
70 | CC1Cn2c(CCc3ccccc3)nnc2S1 (stereo unspecified) | – | active: 28.2 µM
71 | CCc1cc2c(NCc3ccco3)ncnc2s1 | – | inconclusive: 20 µM [inhibitor, partial curve, poor fit]
